# Test results reported in PubChem BioAssay AID1508624 (National Center for Advancing Translational Sciences (NCATS), 2021).
# In all, about 48,000 compounds went through this assay and about 120 (0.25%) were called active. Another 4% or so got no clear call; they are omitted. Calls come from the whole dose curve; as a rule, active = well fitted activation curve with a large enough effect; inconclusive = small, poorly fitted or top-dose-only effect, or another doubt; inactive = no such curve, though single readings can be large or run the other way. This is one part of the list.
# Test: Primary qHTS for Identification of Small Molecule Activators of Huntingtin-Antisense Promoter Activity; note: nearly all actives have a fitted effect of over 55% in size
# Conditions: HEK293 HTT-AS promoter firefly luciferase reporter, 24 h; series mostly up to 57.5 µM; activity change, positive = activation: at the top concentration
# How it was run: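 Quantitative HTS used concentration series of up to 57.5 uM final on HEK293 luciferase reporter cells, 24 h at 37 degrees C. Readout was Dual-Glo firefly luminescence.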
row,Structure (SMILES),"activity change, positive = activation"
1,C=CCNC(N)=S,inactive: 1.74%
2,Cc1ccc(CSCC(=O)N2CCN(c3cc(Cl)ccc3C)CC2)cc1,inactive: -11.1%
3,Cc1ccc(-n2nc(C(=O)NCCN(C)C)c(=O)n(C)c2=O)cc1,inactive: -3.73%
4,COC(=O)CNC(=O)C(Cc1ccccc1)NS(=O)(=O)c1ccc2c(c1)c(=O)n(C)c(=O)n2C (configuration not stated),inactive: -4.95%
5,Cc1c(Cl)cccc1NC(=O)c1cnc2sc(N3CCCC3)nn2c1=O,inactive: -1.99%
6,Cc1ccc(NC(=O)Cn2c(=O)n(CCCCCC(=O)NCc3ccc(F)cc3)c(=O)c3sccc32)c(C)c1,inactive: -11.6%
7,CCN(C(=O)C1CCN(S(=O)(=O)c2ccc3c(c2)CCCN3C(=O)C2CCC2)CC1)c1cccc(C)c1,inactive: -1.38%
8,COCCN1Cc2cccc(C(=O)Nc3ccc(C)cc3C)c2C1=O,inactive: -8.26%
9,Cc1cc2c(cc1S(=O)(=O)N1CCC(C)CC1)OCC(=O)N2,inactive: -23.4%
10,Cc1c(C(=O)NCc2ccc(N(C)C)cc2)oc2c1-c1nn(Cc3cccc(Cl)c3)cc1CC2,inactive: -26.7%
11,O=C(COc1ccccc1)Nc1ccc(S(=O)(=O)N(Cc2ccccc2)c2ccccc2)cc1,inactive: 2.57%
12,CCCC12CN3CC(CCC)(CN(C1)C3c1c[nH]c3ccccc13)C2=O (configuration not stated),inactive: 0.531%
13,Cc1ccc(-c2nnc(SCC(=O)N3CCc4ccccc43)o2)cc1,inactive: -6.4%
14,COc1ccc(-c2nc(-c3ccccc3)c(-c3ccccc3)[nH]2)cc1Br,inactive: -24.3%
15,Oc1c(I)cc(Cl)c2cccnc12,inactive: -4.58%
16,Cc1cc(C)cc(NC(=O)Cn2c(=O)oc3cc(S(=O)(=O)N4CCCC4)ccc32)c1,inactive: -33.2%
17,O=S(=O)(c1ccc2ccccc2c1)n1nc(-c2ccco2)nc1NCc1cccc(Cl)c1,inactive: -8.28%
18,Cc1ccc(CNC(=O)c2ccc3c(c2)N(Cc2ccccc2F)C(=O)c2ccccc2S3(=O)=O)cc1,inactive: -16.1%
19,COc1ccc(S(=O)(=O)c2cn(C)c3cc(N4CCCC4)c(F)cc3c2=O)cc1,inactive: -14.9%
20,COc1cccc(CNC(=O)c2cnc(N3CCCC3)nc2C)c1,inactive: -2.8%
21,COc1ccc(CCNC(=O)c2cc(-c3ccccc3)nc3ccccc23)cc1OC,inactive: -25.5%
22,CCn1cc(C(=O)OCC(=O)Nc2cc(C)cc(C)c2)c(=O)c2ccc(C)nc21,inactive: -0.276%
23,COC(=O)c1scc(-c2ccc(C)cc2)c1S(=O)(=O)Nc1cccc(C(F)(F)F)c1,inactive: 24.2%
24,COC(=O)c1sc2cccc(F)c2c1S(=O)(=O)Nc1cc(OC)cc(OC)c1,inactive: -9.24%

row,Structure (SMILES),"activity change, positive = activation"
1,O=C(CSc1nc2ccccc2c(=O)n1CCC(=O)NC1CCCCC1)Nc1ccccc1Cl,inactive: -3.07%
2,Cc1nn(CCCC(=O)NCc2ccccc2)c(=O)c2nn(-c3ccccc3)c(C)c12,inactive: -4.58%
3,C[C@@H](O)[C@H]1C(=O)N2C(C(=O)O)=C(S[C@@H]3CN[C@H](CNS(N)(=O)=O)C3)[C@H](C)[C@H]12,inactive: -7.43%
4,CCC(=O)N1CCc2cc(S(=O)(=O)NCCC(=O)Nc3ccc(OC)c(Cl)c3)ccc21,inactive: -12.9%
5,O=C(CSc1cn(CC(=O)N2CCCCCC2)c2ccccc12)Nc1ccccc1F,inactive: -41.5%
6,CCc1nnc2c(NCc3ccccc3OC)nc3ccccc3n12,inactive: -10.3%
7,CC(C)c1nnc(N2C(=O)c3oc4ccccc4c(=O)c3C2c2cccc(O)c2)s1 (configuration not stated),"inactive: 4.04% [at 11.5 µM, percent change from vehicle, -100% = no light]"
8,CCOc1ccc(CC(=O)Nc2nnc3n2CCS3)cc1,inactive: -8.19%
9,COc1cc2nccc(Oc3ccc(NC(=O)Nc4cc(C)on4)c(Cl)c3)c2cc1OC,inactive: -43.7%
10,COc1ccc(C(=O)c2cn(Cc3ccc(C)cc3)c3cc4c(cc3c2=O)OCO4)cc1,inactive: -21.2%
11,O=C(CSc1cn(CC(=O)N2CCCCC2)c2ccccc12)Nc1ccccc1F,inactive: -21%
12,COc1ccccc1-c1noc(CSc2nc3ccc(C)cc3[nH]2)n1,inactive: -39.3%
13,COc1cc(NC(=O)CCS(=O)(=O)c2nc(-c3cccs3)cc(C(F)(F)F)n2)cc(OC)c1OC,inactive: -36.5%
14,Cc1c(Cl)cccc1NC(=O)CCn1c(=O)c2cccn2c2ccccc21,inactive: -14.3%
15,Cc1ccc2c(CC(=O)Nc3ccccc3C(F)(F)F)coc2c1C,inactive: -5.61%
16,CC(CNC(=O)C1CCN(Cc2cc3ccccc3n2Cc2ccccc2)CC1)c1ccccc1 (configuration not stated),inactive: -26.2%
17,CCOc1ccccc1NC(=O)CSc1nccn1-c1ccc(Cl)cc1,inactive: -13.1%
18,CO[C@@H]1[C@H](N(C)C(=O)c2ccccc2)C[C@H]2O[C@]1(C)n1c3ccccc3c3c4c(c5c6ccccc6n2c5c31)C(=O)NC4,inactive: -30.8%
19,CN1CCN(C(CNC(=O)C(=O)Nc2ccc(F)cc2F)c2ccc3c(c2)OCO3)CC1 (configuration not stated),inactive: -1.56%
20,CCOc1ccc(CCNC(=O)Cn2nnc(-c3ccc(OC)c(OC)c3)n2)cc1OCC,inactive: -27%
21,CCOc1cc(CNCCSc2nnnn2-c2ccccc2)cc(Cl)c1OC,inactive: -38.2%
22,CC(C)Oc1ccc(CNS(=O)(=O)c2cnc(N)nc2)cc1,inactive: -8.08%
23,CC(C)Cn1cnc2c1c(=O)n(C)c(=O)n2C,inactive: -11.5%
